The full ranking holds about 1,800 sequences; the median of “median log2 fold change of GCK-ALFA target abundance (FLAG IP / Myc IP barcode read proportion)” is about 0.14, and the lowest 2% start at about -0.84. This is one part of the list.
B1: traf2_out_11_155_677 (protein)
chain: EKKREINNALVDEMAAIDDATRAALDAIVDAAAAAHPEHAAALRAARDATRPYPGSSRGRALAALFRELGLEDYAAQVEALLAAAQKEKNAALKAHEAKL
B2: traf2_out_20_38_2038 (protein)
chain: SEEEEEEERLERLVEVANAALDRYEARIAALQAEGKSVAEIAEWAKEEIRRILGEAGLEEEAEELIAQVRTVENRPDALRLIARILARAEALAYQKELQK
B3: traf2_out_12_187_963 (protein)
chain: SVEEELLKAAKAGVKRAIKELEKAAPKDERFKKLLEKLKELEKLYEKDPSIASDLLVASSAILRAVRLFEEGLPEEEIEKAIEEAEKILEEAIKEAKKLE
B4: traf2_out_18_167_1870 (protein)
chain: SEELDKKYEELTDKLVEKSTIRRHLLEILELLKESEEKAREALKKAVEEYPDSEVLKEALEVFETKSLEEFRAFLESKAEELQKEANKYYKELEELEKEK
B5: traf2_out_6_166_2469 (protein)
chain: DEELLKRVREIVEELGKYEPEIVIEAFERLAERRSDRRALMARQLASGVRQGQKAGLDVATIISAFVDGLIALGVPIEEILELLEEVLEIARELAAERAR
B6: traf2_out_9_108_2600 (protein)
chain: MTPEELADAAVDRVVGTVEARVPEVQFSPEQREAIRRNTLRVVRLSEITNETTITSYVAAEVLLAAADLPDEVLARIADVLIELDPATESTVRRTLSLLK
B7: traf2_out_12_187_946 (protein)
chain: SVQEELIEAAKAGLKRAIEALKKIAPTDEEAKRFLEKLEKLKKLMEKHPELAADTLVAASAVLRYVRLVEAGAPKEEIEKAKKEAEKILEEVLKKAEELA
B8: traf2_out_14_149_1239 (protein)
chain: AHEAELYKAAAELAKKAAEALKEVLKLLEEGKVEEAKKLLKETIKELKEEGKKHGISISIIYELEHILKLLDKDVEKAKKAAKEALKRAKDRAEAFASLA
B9: traf2_out_3_89_2292 (protein)
chain: SEERERKIRLARERAERYARGFEKSARRVAKEMLKEGYSLETLRGVLEAARTALVEVFREELRELGLSEEDIRELVEELERRLREIVEKVLEEAEKKRKE
B10: traf2_out_17_178_1737 (protein)
chain: TKEELLKKISEYADKRLDTNRDAMARLRAIAEAEGVLTPELAARLDAAARNANLYHLEEVFAEVRALVSSKEEVTALEERTVAELRRLNKEIQEAVDKLE
B11: traf2_out_6_166_2462 (protein)
chain: SEEIREEIRKIIEELSKYPVEVILEAFDRVAEEVDERSARIARQARSAVRQAQKLGLDVATVLSAFVDGLIALGVPEEELLELYKKILEKAKEIAKEKEE
B12: traf2_out_16_62_1467 (protein)
chain: EEKKKELEKKADELVDAAQELRDTVITFRSGGDREAALARLAELAKKYGPLMQALLDALRAALADPARREEYLAEADDLAVEARTRLVKEALELEKKAKE
B13: traf2_out_11_104_635 (protein)
chain: LTREQAREFNDFAMAQRDKAAAIAAKLAAELKALGETEAAAKVEAALAHPGAGISTFRNLFEDLKPTLSPEAAAKADAAIAELAALQKAVSDKLNELEKK
B14: traf2_out_6_166_2463 (protein)
chain: SEETRAEIRKIIEELSKYPVEVILEAFDEVAKEVDPESARIARQMRSAVRQAQKLGLDVATVLSAFVDGLIALGVPEERLLELLKKVLKKAKEIAKEKEE
B15: traf2_out_11_79_931 (protein)
chain: SEKRKELEELIKKALKLVEELIKKLKEGNISEEEFAKTIEEILELLQRAMQLALELGLSDVLVLLSEARRHVLLSRTRNLEELEKAAKYLKEALKELEKE
B16: traf2_out_18_3_1893 (protein)
chain: SEEKRKEASERLDKIVDEVKAYALKVADEIEAEHPEVAEEVAAIRELVEAGRNPFGGLEALAEIAKRLGLEEKAKEIEEFLREKRKEAQKAVEEMEKLIK
B17: traf2_out_14_166_1280 (protein)
chain: MTPEEIARIREIVDKLEPLNEKAVAEARKIIEKNREKLSPEQLAELERLLEIAERNIGSTAINAFREMAKIFKKAGLEEAAKEFEKLAEELEKELSKLNK
B18: traf2_out_11_169_774 (protein)
chain: AEAEKNRKINDFALELNDKAKEELKKHALALAKEAGLDVAEVEKIFEENKNKSLSAVAAALIEYFRSQGKEEAAAAIEAKYDELKDKINKESSAFIKSLE
B19: traf2_out_14_166_1273 (protein)
chain: MSPEEIERIKEIADRQLELADEFVARARALLAEHRAELSPELLAELEALLAQAENRGLNTVAALLAQMAALARAAGHEALAAAFEALAREAEAEYRALLK

Target: T1, TRAF2, Q12933
T1 chain: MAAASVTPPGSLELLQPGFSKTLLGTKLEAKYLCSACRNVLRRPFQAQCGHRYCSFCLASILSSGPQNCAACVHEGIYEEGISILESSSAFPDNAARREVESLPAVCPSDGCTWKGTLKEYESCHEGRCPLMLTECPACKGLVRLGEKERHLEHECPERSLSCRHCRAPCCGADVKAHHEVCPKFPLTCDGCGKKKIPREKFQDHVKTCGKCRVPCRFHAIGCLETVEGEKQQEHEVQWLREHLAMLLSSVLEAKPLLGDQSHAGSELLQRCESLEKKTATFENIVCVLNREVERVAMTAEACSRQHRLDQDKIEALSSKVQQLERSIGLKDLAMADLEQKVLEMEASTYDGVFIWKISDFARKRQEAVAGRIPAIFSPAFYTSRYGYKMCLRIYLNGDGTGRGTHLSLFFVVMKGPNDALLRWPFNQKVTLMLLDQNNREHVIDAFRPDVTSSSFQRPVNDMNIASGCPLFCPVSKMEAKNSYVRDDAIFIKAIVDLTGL
Assay: median log2 fold change of GCK-ALFA target abundance (FLAG IP / Myc IP barcode read proportion) (log2 ratio); each designed protein is fused to an ALFA-tag nanobody in HEK293 cells to bring the named protein to FLAG-tagged glucokinase (GCK); Myc marks an untargeted standard; higher = target protein stabilised (more abundant)
Settings: target protein: 3xFLAG-MCP-GCK-ALFA reporter; HEK293 landing pad (RPLP)
Method in brief: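 The readout is target abundance, the per-binder median log2 ratio of FLAG to Myc barcode read proportions. It came from HEK293 landing-pad cells carrying a recombined ALFA-nanobody-fused binder library, induced with 2 μg mL^−1 doxycycline and transfected with a plasmid for a FLAG-tagged target and a Myc-tagged standard. After 48 h, lysates were immunoprecipitated with anti-FLAG and anti-Myc, and circular RNA barcodes were reverse transcribed, amplified and sequenced. Each barcode needed a proportion of at least 10^−7 in both replicates and each binder at least 3 barcodes per replicate, a pseudocount of 10^−6 was added, and the replicates were pooled.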

Binder | median log2 fold change
B1 | -0.00384
B2 | -1.39
B3 | 0.0785
B4 | 0.185
B5 | -0.165
B6 | 0.0855
B7 | 0.171
B8 | 0.182
B9 | -1.24
B10 | 0.124
B11 | -0.374
B12 | 0.0511
B13 | 0.31
B14 | -0.176
B15 | 0.265
B16 | 0.281
B17 | 0.218
B18 | 0.234
B19 | 0.288

Source: the supplement of paper PMC12632987
